Among all 52,000 compounds or so, about 4,300 (8.3%) were called active. Rule as the data show it: active = survival mostly below about 52% (no sharp cut-off); inactive = mostly above about 56%. This is one part of the list.

The assay concerns DeltatarO mutant. Kind of assay: S. aureus survival, RN4220 and DeltatarO strains – OD600, teichoic acid synthesis inhibitors, primary screen (AID 463173). The conditions noted are these: S. aureus RN4220 wild type/DeltatarO growth, OD600, 18 h, hits give low values, screened at 18.75 µg/mL (by protocol).
As to `Cc1cc(C)cc(C(=O)Nc2ccc(-c3nc4ncccc4o3)cc2)c1`, the survival is inactive: 56%.
Under `COc1cccc(N2CCN(C(=O)C(CCSC)NS(=O)(=O)c3ccc4c(c3)oc(=O)n4C)CC2)c1` (stereo not given) stands inactive: 106%; under `CCc1ccc(CNC(=O)Cc2ccc(NC(=O)N3CCSc4ncccc43)cc2)cc1`, inactive: 94%.
Consider `CCOC(=O)CSc1nc2ccc(NC(=O)c3ccc(C)cc3)cc2s1`, for which the survival is inactive: 87%.
Under `O=C(O)c1ccc2c(c1)ncn2-c1ccc(F)c(F)c1` stands inactive: 74%; under `CCCc1cc(=O)n(-c2ccc(C(=O)O)cc2)[nH]1`, inactive: 81%.
Next, `OC1CN=C2C=CC=CN2C1` (stereo not given): inactive: 89%; `CCOc1ccc(S(=O)(=O)NCC(c2ccco2)S(=O)(=O)c2cccs2)cc1` (stereo not given): inactive: 93%; `CCOC(=O)c1ccc(NC(=O)CCCc2nc(-c3ccccc3Cl)no2)cc1`: active: 36%.
Next, `COc1ccc(OC)c(NC(=O)C2CCCN(S(=O)(=O)c3c(C)nn(C)c3C)C2)c1` (stereo not given): inactive: 86%.
With `Cc1ccc(NC(=O)c2cnn3c(C(F)F)cc(-c4ccccc4)nc23)c(C)c1`, the survival was inactive: 79%.
In the case of `COc1ccc(N2CCN(C(=O)CCc3c(C)nn(-c4ccc(N5CCCC5)nn4)c3C)CC2)cc1`, the survival was inactive: 91%.
Next, `Cc1ccc(NC(=O)Nc2nnc(N(CC(C)C)CC(C)C)s2)cc1Cl`: inactive: 87%.
Next, `Cc1ccc(S(=O)(=O)N(CC(=O)N2CCC(C(N)=O)CC2)c2ccccc2F)cc1`: inactive: 92%; `Fc1ccc(-c2noc3ncnc(N4CCN(c5ccccc5)CC4)c23)cc1`: inactive: 89%.
Next, `COc1ccc(S(=O)(=O)N2CCN(c3ccccc3F)CC2)cc1-c1noc(C)n1`: inactive: 59%; `CCc1nc2c(Cl)cc(Cl)cc2c(=O)o1`: inactive: 86%.
For `Cc1ccccc1C(=O)N/C(=C/c1ccc(-c2cccnc2Cl)o1)C(=O)NC1CC1`, the survival is inactive: 106%.
Under `O=C(NCc1ccc(F)cc1)c1ccc2c(Cl)c3c(nc2c1)CCCC3` stands inactive: 57%; under `O=C(O)C1CCCCC1C(=O)N1CCCCCC1` (stereo not given), inactive: 77%.
Next, `COc1ccc(OC)c(NC(=O)c2cc3c(=O)oc4ccccc4c3s2)c1`: inactive: 62%; `Cc1cc2c(cc1S(=O)(=O)NCc1ccccc1Cl)OCCN2C`: inactive: 106%; `CCN(CC)c1nn2c(=O)c(C(=O)NCCc3ccccc3)cnc2s1`: inactive: 72%.
Next, `Cc1ccc(C)c(NC(=O)c2ccc3c(O)c(S(=O)(=O)c4ccc(Cl)cc4)c(=O)[nH]c3c2)c1`: inactive: 66%; `CCCCSCCCNC(=O)CN1C(=O)c2cccnc2Oc2ccc(Cl)cc21`: inactive: 94%; `CCOc1ccc(-c2nonc2NC(=O)c2oc3cc(C)ccc3c2C)cc1`: inactive: 72%.
In the case of `O=C(O)Cn1cc(C=C2C(=O)NC(=S)NC2=O)c2ccccc21`, the survival is inactive: 62%.
Consider `CCOc1ccc(CNC(=O)C2CCN(c3nnc(-n4cccc4CNc4ccc(C)cc4)s3)CC2)cc1OC`, for which the survival was inactive: 82%.
For `CC(=O)Nc1ccc(S(=O)(=O)N2CCC(NC(C)=O)(c3cccc(F)c3)CC2)cc1`, the survival was inactive: 68%.
Next, `CCOC(=O)c1ccccc1NC(=O)C(=O)Nc1ccc2nc3n(c(=O)c2c1)CCCCC3`: inactive: 93%.
Under `CCc1cccc(-n2c(C)nc3c(cnn3-c3ccc(Cl)cc3)c2=O)c1` stands active: -1%; under `CC(=O)N1CCOc2cc(S(=O)(=O)Nc3cccc(C(F)(F)F)c3)c(Cl)cc21`, inactive: 85%.
Next, `Cc1cn2c(=O)cc(COc3cccc(NC(=O)c4ccccc4C)c3)nc2s1`: inactive: 83%; `COc1ccc(NC(=O)C2CCN(S(=O)(=O)c3ccc4[nH]c(=O)ccc4c3)CC2)c(OC)c1`: inactive: 94%.
In the case of `CCOC(=O)c1[nH]c(C)c(CCC(=O)NCc2ccccc2)c1C`, the survival is inactive: 92%.
Under `COc1ccc(OC)c(NC(=O)Cc2coc3ccc(C(C)C)cc23)c1` stands inactive: 73%; under `Cc1cc(C)cc(NC(=O)N2CCC(N3CCCCC3)CC2)c1`, inactive: 93%.
Next, `N#CC(C#N)=C1CCCCCN1`: inactive: 73%.
Next, `N#Cc1c(-c2cccs2)cc(-c2cccs2)nc1SCc1cccnc1`: inactive: 65%; `COC(=O)C(C)Sc1nc2c([nH]c3ccccc32)c(=O)n1-c1ccc(OC)cc1` (stereo not given): inactive: 64%.
`Cc1cc(C)c2c(=O)cc(C(=O)Nc3ccc(S(=O)(=O)Nc4nc(C)cc(C)n4)cc3)oc2c1`: the survival was inactive: 103%.
Next, `Cc1ccc(NC(=O)NCc2cccn2Cc2ccccc2)cc1F`: inactive: 60%; `Cc1ccc(-c2cn3c(n2)sc2cc(C(=O)N4CCCCC4)ccc23)cc1`: inactive: 79%.
Under `O=C(Nc1ccc2nc(SCC(=O)N3CCCC3)sc2c1)c1ccc(F)cc1` stands inactive: 85%; under `Cc1ccc(-n2ncc(C(=O)Nc3ccc(C)c(F)c3)c2C2CCN(C(=O)OC(C)(C)C)CC2)cc1C`, inactive: 122%.
Next, `Cc1nc2sc(C(=O)NCc3ccc(Cl)cc3)c(NC(=O)c3ccccc3)c2c(C)c1C`: inactive: 54%.
`Cc1ccc(CNC(=O)CCCCn2c(=O)c3ccccc3n(Cc3ccc(Cl)cc3)c2=O)cc1`: the survival is inactive: 105%.
Under `O=C(Cn1cc(/C=N/NC(=S)Nc2ccccc2)c2ccccc21)NCc1ccco1` stands inactive: 82%; under `CCC(C(=O)OCc1cc(=O)n2nc(CCOC)sc2n1)c1ccccc1` (stereo not given), inactive: 124%.
Under `Cc1ccccc1NC(=O)c1nc(-c2ccncc2)no1` stands inactive: 46%.
Under `COc1cccc(N2CCN(c3nc4ccc(C(=O)c5ccccc5)cc4n4c(C)nnc34)CC2)c1` stands inactive: 102%; under `CC(C)OCCCNC(=O)CCCn1c(SCC(=O)c2ccc(Br)cc2)nc2c(sc3ccccc32)c1=O`, inactive: 74%; under `COc1ccc(CNC(=O)c2cnn3c(C)c(Cc4ccc(F)cc4)c(C)nc23)cc1`, inactive: 80%.
Turning to `Cc1cc(C)c(NC(=O)Cn2c(=O)n(CCCCC(=O)NCc3ccccc3Cl)c(=O)c3ccccc32)c(C)c1`, the survival was inactive: 76%.
For `COc1cc(CN(CC2CCCO2)C(=O)c2ccccc2F)cc(OC)c1OC` (stereo not given), the survival is inactive: 70%.
Take `COc1ccc(CNC(=O)CCCn2c(SCC(N)=O)nc3cc4c(cc3c2=O)OCO4)cc1`: the survival is inactive: 86%.
Next, `O=C(NCc1ccncc1)c1c(O)c2ccccc2[nH]c1=O`: inactive: 88%; `Cc1cc(Nc2cccc(Cl)c2C)n2nc(Cc3ccccc3)nc2n1`: active: 49%; `CCOc1ccccc1NC(=O)Cn1c(=O)n(Cc2ccccc2)c(=O)c2c(C)c(C(=O)N(C)C)sc21`: inactive: 74%.
Next, `CCN(CC)C(=O)CSc1nc2cc3c(cc2c(=O)n1Cc1ccc(C(=O)NCCc2ccc(OC)c(OC)c2)cc1)OCO3`: inactive: 78%.
With `COc1cc(Cl)c(C)cc1NC(=O)c1cn(CC(C)C)c(=O)c2cc(OC)c(OC)cc12`, the survival is active: 42%.
Under `O=C(NNc1ncnc2c1cnn2-c1ccccc1)c1cccc(Cl)c1` stands inactive: 144%; under `CC(C)Cn1c(=O)c2ccccc2n2c(-c3cccc(Cl)c3)nnc12`, inactive: 96%; under `COc1ccc(C(=O)NCc2nnnn2-c2ccc(C)c(C)c2)cc1`, inactive: 64%.
Next, `COc1ccc(Cl)c(Cn2c(NCCN)nc3c2c(=O)n(C)c(=O)n3C)c1`: active: 56%; `Cc1ccc(Cl)cc1NC(=O)Cn1nc2c(cc1=O)CC(C)CC2` (stereo not given): inactive: 69%.
Next, `CCOc1ccc(NC(=O)CN2C(=O)COc3ccc(S(=O)(=O)Nc4ccccc4)cc32)cc1`: inactive: 76%.
Regarding `COc1ccc(C(=O)Nc2ccc3nc4n(c(=O)c3c2)CCCCC4)cc1OC`, the survival is inactive: 91%.
Next, `CCCCc1nn2c(=O)cc(COC(=O)c3ccccc3NC(=O)C(C)(C)C)nc2s1`: inactive: 86%; `Cc1cc(NS(=O)(=O)c2ccc(NC(=O)COc3ccc(Br)cc3C)cc2)no1`: active: 32%.
Next, `Cc1[nH]c(=O)[nH]c(=O)c1C1N2CC3(C(C)C)CN1CC(C(C)C)(C2)C3=O` (stereo not given): inactive: 82%; `CCOC(=O)c1ccc(NC(=O)CN2C(=O)c3cccnc3Oc3ccc(Cl)cc32)cc1`: inactive: 78%; `Cc1ccc(N2CCn3c2nc2c3c(=O)n(CCc3ccccc3)c(=O)n2C)cc1C`: inactive: 78%.
As for `N#Cc1ccc(-c2cccs2)nc1SCc1ccc(Cl)cc1Cl`, the survival is inactive: 74%.
On to `CCOc1ccc(NC(=O)N2CCOc3ccccc32)cc1`, for which the survival was inactive: 84%.
Under `CCc1ccccc1NC(=O)CSc1nnc(-c2nonc2NC(C)=O)n1C` stands inactive: 52%; under `Cc1ccnc(NC(c2ccccc2F)c2ccc3cccnc3c2O)c1` (stereo not given), active: -1%; under `Cc1ccc(Cl)cc1Nc1nc2ccccc2n2c(C)nnc12`, inactive: 67%.
Under `O=C1NC(c2ccccc2)Oc2ccccc21` (stereo not given) stands inactive: 111%.
Under `CCCOc1ccccc1Cn1c(=O)sc2ccccc21` stands active: -2%.
As to `COc1ccc(Br)cc1CNC(=O)CCCn1c(=O)c2cccn2c2ccccc21`, the survival was active: 39%.
Turning to `Cc1cccc(-c2nnc(-c3ccccc3)o2)c1`, the survival is inactive: 63%.
Under `CC(C)c1ccc(NC(=O)N2CCCC2C(=O)Nc2ccc(-n3cnnn3)cc2)cc1` (stereo not given) stands inactive: 100%; under `CCC(C(=O)Nc1cccc(-c2cn3cccnc3n2)c1)c1ccccc1` (stereo not given), inactive: 86%; under `CCC(Oc1ccccc1F)C(=O)Nc1c(C(=O)c2ccccc2)oc2ccccc12` (stereo not given), inactive: 53%.
Under `CC(C)(C)OC(=O)N1CCC(c2c(C(=O)NCc3ccc4c(c3)OCO4)cnn2-c2ccc(F)cc2F)CC1` stands inactive: 83%; under `O=C(Nc1ccc(Cl)cc1)C1CCN(c2nc3ccccc3n3cccc23)CC1`, inactive: 77%.
Consider `Cc1ccn2c(c1)nc(=O)c1cc(S(=O)(=O)N3CCC(C)CC3)c(Cl)cc12`, for which the survival was inactive: 87%.
Next, `CCCCN(C)CCNC(=O)c1cc(-c2cccnc2)nc2ccc(S(=O)(=O)N3CCC(C)CC3)cc12`: inactive: 80%; `O=C(COc1ccccc1F)Nc1ccc(C(=O)OCc2cc(=O)n3nc(C4CC4)sc3n2)cc1`: inactive: 109%.

(Values after PubChem BioAssay AID463173 (ICCB-Longwood Screening Facility, Harvard Medical School, 2010).)
